# In patent US11207320B2, “Compositions and methods for cancer expressing PDE3A or SLFN12” (The Broad Institute, Inc., priority 2015, dated 2021):
# This continues a long series; more values of the same kind are listed elsewhere.
# Test system: 766 cancer cell lines
# Assay: Large-scale cell-line viability measurements (766 cancer cell lines, 72 h, AUC)
# Type: cell-based, human
# Conditions: 72 hours
# Protocol: Cell lines were treated for 72 hours with concentrations ranging from 66.4 μM-2 nM in 2-fold step dilutions.
# To characterize cellular sensitivity to DNMDP further, 766 genomically characterized cancer cell lines were screened for DMNDP sensitivity at concentrations ranging from 66.4 μM to 2 nM in 2-fold dilution steps for 72 hours. From these cell lines, 22 cell lines were categorized as sensitive with a robust Z-score lower than −4, which represented multiple lineages including multiple melanoma cell lines, amongst others (Table 1).
# The sensitivity of […] cancer cell lines (CCLs) was measured drawn from 23 different lineages to DNMDP. Each cell line was plated in its preferred media in white opaque 1536-plates at a density of 500 cells/well. After incubating overnight, DNMDP was added by acoustic transfer at 16 concentrations ranging from 66.4 μM-2 nM in 2-fold steps in duplicate (Labcyte Echo 555, Labcyte Inc., Sunnyvale, Calif.). After 72 hours treatment, cellular ATP levels were measured as a surrogate for viability (CELLTITERGLO®, Promega Corporation, Madison, Wis.) according to manufacturer's protocols using a ViewLux Microplate Imager (PerkinElmer, Waltham, Mass.) and normalized to background (media-only) and vehicle (DMSO)-treated control wells.
# Concentration response curves were fit using nonlinear fits to 2- or 3-parameter sigmoid functions through all 16 concentrations with the low-concentration asymptote set to the DMSO-normalized value, and an optimal 8-point dose curve spanning the range of compound-sensitivity was identified. The area under the 8-point dose curve (AUC) was computed by numeric integration as a metric for sensitivity for further analysis. Similar sensitivity measurements have been obtained for a collection of 480 other compounds, enabling analyses that identify cell lines responding uniquely to DNMDP (see Broad Institute Cancer Therapeutics Response Portal, a dataset to identify comprehensively relationships between genetic and lineage features of human cancer cell lines and small-molecule sensitivities for complete list of compounds).
# [1] = BECKER (CENTRAL NERVOUS SYSTEM)
# [2] = BICR18 (UPPER AERODIGESTIVE TRACT)
# [3] = BICR31 (UPPER AERODIGESTIVE TRACT)
# [4] = BV173 (HAEMATOPOIETIC AND LYMPHOID TISSUE)
# [5] = CA46 (HAEMATOPOIETIC AND LYMPHOID TISSUE)
# [6] = CAL27 (UPPER AERODIGESTIVE TRACT)
# [7] = CMLT1 (HAEMATOPOIETIC AND LYMPHOID TISSUE)
# [8] = DBTRG05MG (CENTRAL NERVOUS SYSTEM)
# [9] = EB1 (HAEMATOPOIETIC AND LYMPHOID TISSUE)
# [10] = EHEB (HAEMATOPOIETIC AND LYMPHOID TISSUE)
# [11] = EOL1 (HAEMATOPOIETIC AND LYMPHOID TISSUE)
# [12] = F36P (HAEMATOPOIETIC AND LYMPHOID TISSUE)
# [13] = GDM1 (HAEMATOPOIETIC AND LYMPHOID TISSUE)
smiles,measurement,setting,value
"CCN(CC)c1ccc(C2=NNC(=O)CC2C)cc1[N+](=O)[O-] (centres unmarked) [DNMDP, 6-(4-(diethylamino)-3-nitrophenyl)-5-methyl-4,5-dihydropyridazin-3(2H)-one]",DNMDP AUC,A673 (BONE),6.2304
same,Robust Z-score,A673 (BONE),−0.4243
same,DNMDP AUC,A2058 (SKIN),2.0833
same,Robust Z-score,A2058 (SKIN),−4.777
same,DNMDP AUC,ASPC1 (PANCREAS),6.4186
same,Robust Z-score,ASPC1 (PANCREAS),−0.2268
same,DNMDP AUC,BC3C (URINARY TRACT),6.266
same,Robust Z-score,BC3C (URINARY TRACT),−0.387
same,DNMDP AUC,BCPAP (THYROID),5.2336
same,Robust Z-score,BCPAP (THYROID),−1.471
same,DNMDP AUC,[1],6.4161
same,Robust Z-score,[1],−0.2294
same,DNMDP AUC,[2],5.6
same,Robust Z-score,[2],−1.086
same,DNMDP AUC,[3],4.8356
same,Robust Z-score,[3],−1.888
same,DNMDP AUC,[4],6.4448
same,Robust Z-score,[4],−0.1993
same,DNMDP AUC,BXPC3 (PANCREAS),6.2387
same,Robust Z-score,BXPC3 (PANCREAS),−0.4156
same,DNMDP AUC,[5],6.4772
same,Robust Z-score,[5],−0.1653
same,DNMDP AUC,[6],6.3725
same,Robust Z-score,[6],−0.2752
same,DNMDP AUC,CAL51 (BREAST),4.0017
same,Robust Z-score,CAL51 (BREAST),−2.764
same,DNMDP AUC,CAL78 (BONE),3.1711
same,Robust Z-score,CAL78 (BONE),−3.636
same,DNMDP AUC,CAOV3 (OVARY),5.4646
same,Robust Z-score,CAOV3 (OVARY),−1.228
same,DNMDP AUC,CAS1 (CENTRAL NERVOUS SYSTEM),3.9993
same,Robust Z-score,CAS1 (CENTRAL NERVOUS SYSTEM),−2.766
same,DNMDP AUC,CCK81 (LARGE INTESTINE),6.4043
same,Robust Z-score,CCK81 (LARGE INTESTINE),−0.2418
same,DNMDP AUC,CGTHW1 (THYROID),3.4296
same,Robust Z-score,CGTHW1 (THYROID),−3.364
same,DNMDP AUC,CHAGOK1 (LUNG),6.5292
same,Robust Z-score,CHAGOK1 (LUNG),−0.1107
same,DNMDP AUC,CHP212 (AUTONOMIC GANGLIA),6.5178
same,Robust Z-score,CHP212 (AUTONOMIC GANGLIA),−0.1227
same,DNMDP AUC,[7],6.3494
same,Robust Z-score,[7],−0.2994
same,DNMDP AUC,COLO678 (LARGE INTESTINE),5.0245
same,Robust Z-score,COLO678 (LARGE INTESTINE),−1.69
same,DNMDP AUC,COLO741 (SKIN),2.7231
same,Robust Z-score,COLO741 (SKIN),−4.106
same,DNMDP AUC,COLO829 (SKIN),5.2432
same,Robust Z-score,COLO829 (SKIN),−1.461
same,DNMDP AUC,CORL105 (LUNG),5.5442
same,Robust Z-score,CORL105 (LUNG),−1.145
same,DNMDP AUC,COV318 (OVARY),0.09584
same,Robust Z-score,COV318 (OVARY),−6.863
same,DNMDP AUC,COV434 (OVARY),6.3341
same,Robust Z-score,COV434 (OVARY),−0.3155
same,DNMDP AUC,COV644 (OVARY),5.5849
same,Robust Z-score,COV644 (OVARY),−1.102
same,DNMDP AUC,CW2 (LARGE INTESTINE),6.4567
same,Robust Z-score,CW2 (LARGE INTESTINE),−0.1868
same,DNMDP AUC,[8],4.7415
same,Robust Z-score,[8],−1.987
same,DNMDP AUC,DM3 (PLEURA),5.2635
same,Robust Z-score,DM3 (PLEURA),−1.439
same,DNMDP AUC,[9],6.4633
same,Robust Z-score,[9],−0.1799
same,DNMDP AUC,[10],6.5124
same,Robust Z-score,[10],−0.1283
same,DNMDP AUC,[11],5.0478
same,Robust Z-score,[11],−1.666
same,DNMDP AUC,[12],6.388
same,Robust Z-score,[12],−0.2589
same,DNMDP AUC,FTC238 (THYROID),6.2564
same,Robust Z-score,FTC238 (THYROID),−0.397
same,DNMDP AUC,FU97 (STOMACH),6.4421
same,Robust Z-score,FU97 (STOMACH),−0.2021
same,DNMDP AUC,G292CLONEA141B1 (BONE),1.9664
same,Robust Z-score,G292CLONEA141B1 (BONE),−4.9
same,DNMDP AUC,[13],6.4875
same,Robust Z-score,[13],−0.1545
same,DNMDP AUC,GMS10 (CENTRAL NERVOUS SYSTEM),6.4313
same,Robust Z-score,GMS10 (CENTRAL NERVOUS SYSTEM),−0.2134
same,DNMDP AUC,GP2D (LARGE INTESTINE),6.2536
same,Robust Z-score,GP2D (LARGE INTESTINE),−0.4
same,DNMDP AUC,HCC15 (LUNG),6.3861
